Data taken from PubChem BioAssay AID504832 (National Center for Advancing Translational Sciences (NCATS), 2011).
The whole screen tested about 310,000 compounds, of which about 18,000 (5.8%) were called active. The shares of active, inactive and inconclusive entries below differ from those in the screen. Calls come from the whole dose curve; as a rule, active = well fitted inhibition curve with a large enough effect; inconclusive = small, poorly fitted or top-dose-only effect, or another doubt; inactive = no such curve, though single readings can be large or run the other way. Potencies of inconclusive entries are left out as doubtful fits.

test: Primary qHTS for delayed death inhibitors of the malarial parasite plastid, 48 hour incubation; settings: P. falciparum luciferase growth in erythrocytes; series mostly up to 28.7 µM; activity change, negative = inhibition: at the top concentration
Procedure, shortened: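 Here the parasites carry a stable luciferase gene and grow inside erythrocytes in Albumax-based RPMI medium with compound for one erythrocytic cycle. Activity is scored as loss of luminescent signal.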
% is set by controls: 0 for no effect and ±100 for the full control effect; potency is the fitted concentration of half-maximal effect; tags give direction and shape of the fitted curve.

Row | SMILES | activity change, negative = inhibition | Potency
1 | COc1ccc(NC(=O)CC2Sc3ncnn3C2=O)cc1 (centres undefined) | inactive: 21.5% | –
2 | CCc1ccc(C(CNC(=O)c2ccc3c(=O)n(-c4ccccc4F)c(=S)[nH]c3c2)N(C)C)cc1 (centres undefined) | – | active: 13.1 µM
3 | Cc1cc(C)n(-c2nnc(C)n2/N=C/c2ccccc2OCc2ccccc2Cl)n1 | – | inconclusive [inhibitor, partial curve]
4 | CCOC(=O)c1ccc(-[n+]2c(-c3ccccc3)cc(-c3ccccc3)cc2-c2ccccc2)cc1 | – | active: 2.94 µM
5 | COc1cc2c(cc1OC)-c1cc(N3CCc4ccccc43)nc(=O)n1CC2 | – | inconclusive [inhibitor, partial curve, poor fit]
6 | CN1C(=O)c2ccccc2N(C)C1c1ccc(F)cc1 (centres undefined) | – | inconclusive [inhibitor, single point]
7 | Cc1ccc(NC2=NC(c3ccc(O)cc3)n3c(nc(C)cc3=O)N2)cc1 (centres undefined) | – | inconclusive [inhibitor, partial curve, poor fit]
8 | CC(C)Oc1cccc(C(=O)C2CCCN(Cc3ccc(Oc4ncccn4)cc3)C2)c1 (centres undefined) | – | inconclusive [inhibitor, single point]
9 | O=C(Nc1ccccc1)C1C(c2ccccc2)C1(Cl)Cl (centres undefined) | – | inconclusive [inhibitor, partial curve, poor fit]
10 | O=C(NCc1ccncc1)c1ccc(NS(=O)(=O)c2ccc(F)cc2)cc1 | inactive: 4.25% | –
11 | COc1ccc(C(=O)NCc2ccccc2)cc1S(=O)(=O)N1CCCc2ccccc21 | – | inconclusive [inhibitor, single point]
12 | O=C(Nc1ccc(S(=O)(=O)Nc2ccccn2)cc1)c1ccc(Cl)cc1Cl | – | inconclusive [inhibitor, full curve, poor fit]
13 | CCn1ccnc1CN1CCc2c([nH]c3ccccc23)C1C1CCCCC1 (centres undefined) | – | inconclusive [inhibitor, full curve, poor fit]
14 | CC(C)CN(C(=O)COc1ccc([N+](=O)[O-])cc1)c1c(N)n(CC(C)C)c(=O)[nH]c1=O | inactive: -2.57% | –
15 | CC(=O)Nc1ccc(NC(=O)CSc2nnc(NC(=O)c3cccc(F)c3)s2)cc1 | inactive: 49.7% | –
16 | CCCCc1nc(NCCN2CCOCC2)c(C#N)c2c1COC(C)(C)C2 | – | inconclusive [inhibitor, single point]
17 | CCOC(=O)c1cc(CC)sc1NC(=O)CN1CCN(C(=O)c2ccco2)CC1 | – | inconclusive [inhibitor, full curve]
18 | C=CCOc1ccc(/C(CC)=N/O)c(OC)c1 | inactive: 7.7% | –
19 | CCCCn1c(N)c(N(CCC(C)C)C(=O)c2ccc(-c3ccc([N+](=O)[O-])cc3)o2)c(=O)[nH]c1=O | – | inconclusive [inhibitor, single point]
